Laboratory results from the supplement of paper PMC9938546.
Where a name gives a salt, the structure may show the parent alone. The list shows a part of the results. Repeats are few or missing, and single values can be far off.

System: HCT116-GFP
Assay: HCT116-GFP viability (GFP intensity) relative to untreated control, monoculture; higher = less cancer cell killing
Conditions: culture: HCT116-GFP monoculture; 10 µM; 72 h
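Further: viability estimated indirectly by image-based GFP quantification with live-cell imaging of the constitutively GFP-expressing human colorectal cancer line, no immune cells added.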

Compound	HCT116-GFP viability
CC(N)C12CC3CC(CC(C3)C1)C2 (stereo not drawn) [Rimantadine Hydrochloride]	107%
CN(C)[C@@H]1C(O)=C(C(N)=O)C(=O)[C@@]2(O)C(O)=C3C(=O)c4c(O)ccc(Cl)c4[C@@H](O)[C@H]3C[C@@H]12 [Demeclocycline hydrochloride]	101%
O=C1c2ccccc2S(=O)(=O)N1CCCCN1CCN(c2ncccn2)CC1 [Ipsapirone]	98.8%
Cn1c([N+](=O)[O-])cnc1COC(N)=O [Ronidazole]	94.9%
N[C@@H](C(=O)N[C@@H]1C(=O)N2C(C(=O)O)=C(Cl)CS[C@H]12)c1ccccc1 [Cefaclor hydrate]	98.4%
COc1ccc(C(=O)NCc2ccc(OCCN(C)C)cc2)cc1OC [Itopride]	109%
CC(Oc1ccccc1)C(=O)N[C@@H]1C(=O)N2[C@@H]1SC(C)(C)[C@@H]2C(=O)O (stereo partly drawn) [Phenethicillin potassium salt]	72.9%
CO/N=C(\C(=O)N[C@@H]1C(=O)N2C(C(=O)O)=C(C[N+]3(C)CCCC3)CS[C@H]12)c1csc(N)n1 [Cefepime hydrochloride]	75.1%
CCOC(=O)[C@H](CCc1ccccc1)N[C@@H](C)C(=O)N1CCC[C@H]1C(=O)O [Enalapril maleate]	95.3%
CC1=C(CC(=O)O)c2cc(F)ccc2/C1=C\c1ccc([S+](C)[O-])cc1 (stereo not drawn) [Sulindac]	90.2%
CC(Oc1c(Cl)cccc1Cl)C1=NCCN1 (stereo not drawn) [Lofexidine]	91.5%
CN(C)CCCO[C@@H]1[C@H]2OC(C)(C)O[C@H]2O[C@@H]1[C@H](O)CO [Amiprilose hydrochloride]	82.7%
C[C@]12CC[C@@H]3c4ccc(O)cc4CC[C@H]3[C@@H]1C[C@@H](O)[C@@H]2O [Estriol]	88.1%
CC[N+](CC)(CC)CCC(O)(c1ccccc1)C1CCCCC1 (stereo not drawn) [Tridihexethyl chloride]	95.8%
CCc1cccc2c3c([nH]c12)C(CC)(CC(=O)O)OCC3 (stereo not drawn) [Etodolac]	123%
Cc1noc(NS(=O)(=O)c2ccc(N)cc2)c1C [Sulfisoxazole]	93.8%
C=CC1=C(C(=O)O)N2C(=O)[C@@H](NC(=O)/C(=N\OCC(=O)O)c3csc(N)n3)[C@H]2SC1 [Cefixime]	96.5%
OCCOCCN1CCN(C(c2ccccc2)c2ccc(Cl)cc2)CC1 (stereo not drawn) [Hydroxyzine dihydrochloride]	88.9%
Cc1ccccc1N1C(=O)c2cc(S(N)(=O)=O)c(Cl)cc2NC1C (stereo not drawn) [Metolazone]	99.7%
Cc1cc(-n2c(=O)[nH]c(=O)n(C)c2=O)ccc1Oc1ccc(SC(F)(F)F)cc1 [Toltrazuril]	96.7%
COc1ccc2[nH]c([S+]([O-])Cc3ncc(C)c(OC)c3C)nc2c1 (stereo not drawn) [Omeprazole]	77.4%
CC(=O)Nc1ccc(O)cc1 [Acetaminophen]	98.3%
COC(=O)C1=C(C)NC(C)=C(C(=O)OCCN(C)Cc2ccccc2)C1c1cccc([N+](=O)[O-])c1 (stereo not drawn) [Nicardipine hydrochloride]	58.8%
CN1CCN(c2c(F)cc3c(=O)c(C(=O)O)cn4c3c2SCC4)CC1 [Rufloxacin]	93.9%

Compound	HCT116-GFP viability
COC(=O)C1=C(C)NC(C)=C(C(=O)OCC(C)C)C1c1ccccc1[N+](=O)[O-] (stereo not drawn) [Nisoldipine]	22.6%
NC(=O)NC1NC(=O)NC1=O (stereo not drawn) [Allantoin]	109%
O=C1CCc2ccc(OCCCCN3CCN(c4cccc(Cl)c4Cl)CC3)cc2N1 [Aripiprazole]	53.9%
CN(C)CCOC(c1ccc(Cl)cc1)c1ccccn1 (stereo not drawn) [Carbinoxamine maleate salt]	97.2%
Cc1ccccc1C(OCCN(C)C)c1ccccc1 (stereo not drawn) [Orphenadrine hydrochloride]	105%
O=C1C(O)=C([C@H]2CC[C@H](c3ccc(Cl)cc3)CC2)C(=O)c2ccccc21 [Atovaquone]	74.7%
CC(C)NCC(O)c1ccc(O)c(O)c1 (single isomer, unassigned; (-)) [(-)-Isoproterenol hydrochloride]	71.6%
CN1CCOC(c2ccccc2)c2ccccc2C1 (stereo not drawn) [Nefopam hydrochloride]	96.9%
CN1CCC(=C2c3ccccc3CCc3sccc32)CC1 [Pizotifen malate]	90.9%
CCN(CC)CCOc1ccc(C(=C(Cl)c2ccccc2)c2ccccc2)cc1 [Clomiphene citrate (Z,E)]	19.5%
CN(C)[C@@H]1C(O)=C(C(=O)NCNCCCC[C@H](N)C(=O)O)C(=O)[C@@]2(O)C(O)=C3C(=O)c4c(O)cccc4[C@@](C)(O)[C@H]3C[C@@H]12 [Lymecycline]	81%
CCCCNc1ccc(C(=O)OCCN(C)C)cc1	94.5%
COc1ccccc1N1CCN(CCCCNC(=O)c2ccc3ccccc3c2)CC1	87.2%
CCC1NC(=O)c2cc(S(N)(=O)=O)c(Cl)cc2N1 (stereo not drawn) [Quinethazone]	93%
Cc1cnc(C(=O)NCCc2ccc(S(=O)(=O)NC(=O)NC3CCCCC3)cc2)cn1 [Glipizide]	94%
O=C1[C@H](CC[C@H](O)c2ccc(F)cc2)[C@@H](c2ccc(O)cc2)N1c1ccc(F)cc1 [Ezetimibe]	84.4%
CC(C)(C)NC[C@H](O)COc1ccccc1C1CCCC1 [Penbutolol sulfate]	69%
COc1ccc(C(=O)c2ccccc2O)c(O)c1 [Dioxybenzone]	115%
Nc1nc2[nH]cc(CCc3ccc(C(=O)N[C@@H](CCC(=O)O)C(=O)O)cc3)c2c(=O)[nH]1 [Pemetrexed disodium]	59.1%
COc1ccc(CN2CCN(C(c3ccc(F)cc3)c3ccc(F)cc3)CC2)c(OC)c1OC [Lomerizine hydrochloride]	25.2%
Cc1cnc(C(=O)O)c[n+]1[O-] [Acipimox]	105%
O=C(OCCOCCO)c1ccccc1Nc1cccc(C(F)(F)F)c1 [Etofenamate]	90.2%
O=C(O)[C@H]1/C(=C/CO)O[C@@H]2CC(=O)N21 [Clavulanate potassium salt]	82.3%
C#C[C@]1(O)CC[C@H]2[C@@H]3CCC4=C(CCC(=O)C4)[C@H]3CC[C@@]21C [Norethynodrel]	82.7%
